# From PubChem BioAssay AID1347165 (National Center for Advancing Translational Sciences (NCATS), 2019)
# Among all 220,000 compounds or so, about 5,700 (2.6%) were called active. The shares of active, inactive and inconclusive entries below differ from those in the screen. The call rests on the fitted dose curve; in most records, active means well fitted inhibition curve with a large enough effect; inconclusive means small, poorly fitted or top-dose-only effect; inactive means no such curve, though single readings can be large or run the other way. Where the call is inconclusive, the potency comes from a doubtful curve fit.
# Target: Lysine-specific demethylase 5B (Homo sapiens) (UniProt Q9UGL1)
# Assay: Primary screen for KDM5B Histone Demethylases FDH-coupled qHTS; further: nearly all actives have a fitted effect of over 70% in size; on activity change, negative = inhibition: 0% is about no effect
# Conditions: FDH-coupled NADH fluorescence (FDH is formaldehyde dehydrogenase); activity change, negative = inhibition: at 57.7 µM (top of the series) unless noted
# In short: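 Measured: NADH fluorescence change, 30 min, RT. System: KDM5BΔAP 200 nM final, H3K4me3 peptide, α-KG, Fe(II), ascorbate, NAD⁺ plus FDH, pH 7.5 HEPES. Compounds: titrated, 10 min pre-incubation with enzyme.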
# Potency means the concentration at half of the fitted maximal effect; tags describe the fitted curve by direction and shape.
# Chain of UniProt Q9UGL1 (Q9UGL1 whole entry, looked up): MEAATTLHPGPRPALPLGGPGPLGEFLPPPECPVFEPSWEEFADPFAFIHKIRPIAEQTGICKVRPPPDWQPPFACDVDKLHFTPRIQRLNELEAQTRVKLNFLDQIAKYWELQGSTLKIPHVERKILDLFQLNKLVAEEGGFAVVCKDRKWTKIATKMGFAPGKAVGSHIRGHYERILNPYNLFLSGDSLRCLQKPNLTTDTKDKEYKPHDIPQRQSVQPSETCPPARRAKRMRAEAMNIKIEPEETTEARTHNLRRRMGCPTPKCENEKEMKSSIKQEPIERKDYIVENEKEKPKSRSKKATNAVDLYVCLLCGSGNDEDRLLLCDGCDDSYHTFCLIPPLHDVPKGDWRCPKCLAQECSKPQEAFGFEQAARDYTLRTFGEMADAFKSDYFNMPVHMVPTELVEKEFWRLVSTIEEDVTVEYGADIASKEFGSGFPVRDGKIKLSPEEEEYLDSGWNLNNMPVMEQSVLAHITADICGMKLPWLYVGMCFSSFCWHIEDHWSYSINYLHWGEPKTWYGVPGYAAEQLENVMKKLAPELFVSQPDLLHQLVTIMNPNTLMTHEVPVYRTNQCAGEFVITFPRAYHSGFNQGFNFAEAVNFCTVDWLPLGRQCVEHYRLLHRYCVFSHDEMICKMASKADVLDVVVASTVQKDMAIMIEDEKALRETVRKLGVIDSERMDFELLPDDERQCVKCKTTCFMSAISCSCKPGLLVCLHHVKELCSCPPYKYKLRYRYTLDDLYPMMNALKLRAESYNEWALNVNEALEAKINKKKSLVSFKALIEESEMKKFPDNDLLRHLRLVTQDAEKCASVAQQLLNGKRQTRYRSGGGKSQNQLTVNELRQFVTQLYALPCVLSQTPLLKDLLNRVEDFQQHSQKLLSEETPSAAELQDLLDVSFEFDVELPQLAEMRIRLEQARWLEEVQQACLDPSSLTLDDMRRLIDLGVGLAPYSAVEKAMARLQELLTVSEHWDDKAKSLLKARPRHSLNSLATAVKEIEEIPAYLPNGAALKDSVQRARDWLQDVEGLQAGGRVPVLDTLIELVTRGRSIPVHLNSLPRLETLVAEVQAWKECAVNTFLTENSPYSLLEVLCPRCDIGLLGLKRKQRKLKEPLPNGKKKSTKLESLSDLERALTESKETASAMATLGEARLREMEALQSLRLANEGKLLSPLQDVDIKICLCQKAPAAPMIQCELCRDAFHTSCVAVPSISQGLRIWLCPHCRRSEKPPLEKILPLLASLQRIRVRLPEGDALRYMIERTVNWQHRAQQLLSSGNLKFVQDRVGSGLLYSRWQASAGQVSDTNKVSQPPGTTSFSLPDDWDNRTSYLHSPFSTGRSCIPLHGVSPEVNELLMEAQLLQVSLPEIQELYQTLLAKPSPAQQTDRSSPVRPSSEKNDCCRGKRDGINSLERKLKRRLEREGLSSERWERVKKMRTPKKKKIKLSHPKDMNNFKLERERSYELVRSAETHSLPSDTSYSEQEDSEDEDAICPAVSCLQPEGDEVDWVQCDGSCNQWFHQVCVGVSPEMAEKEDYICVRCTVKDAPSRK
SMILES,"activity change, negative = inhibition",Potency
CNC(=O)NC(=O)CSc1nc(NC2CC2)c2ccccc2n1,inactive: 21.1%,
CCOc1ccc(N2C(=O)CC(NC3CCN(C(=O)c4ccc(F)cc4)CC3)C2=O)cc1 (stereo unspecified),,"inconclusive: 28.2 µM [inhibitor, partial curve, poor fit]"
CC/C=C/CN1CCC2(Cc3ccccc3CNC2=O)C1 (stereo unspecified),,"inconclusive: 100 µM [inhibitor, partial curve, poor fit]"
Cc1noc(C)c1-c1cnc(Nc2ccncc2)c2c1CCO2,,"inconclusive: 44.7 µM [inhibitor, partial curve, poor fit]"
CNC(=O)CCn1ncc2cc(OCc3ccccc3-c3ccc(OC)cc3C)ccc21,,"inconclusive: 35.5 µM [inhibitor, single point]"
COc1ccc(-c2nc(Cn3c(SCc4ccc(C)cc4)nc4cccnc43)c(C)o2)cc1OC,,"inconclusive: 35.5 µM [inhibitor, partial curve, poor fit]"
Cc1ccc(Nc2nc(C(N)=O)c(NC(=O)CC34CC5CC(CC(C5)C3)C4)s2)cc1,inactive: -26.4%,
O=C(CCCn1c(=O)c2cccn2c2cccnc21)NCc1ccc(F)cc1,,"inconclusive: 35.5 µM [inhibitor, partial curve, poor fit]"
Cc1cc(C)nc(N2C[C@H]3OC(=O)N(CCc4ccc(F)cc4)[C@H]3C2)n1,,"inconclusive: 25.1 µM [inhibitor, single point]"
CCC1CCCCN1CC(=O)N1CCCc2c1c(=O)oc1ccc(OCc3ccccc3)cc21 (stereo unspecified),,"inconclusive: 28.2 µM [inhibitor, partial curve, poor fit]"
OC1(CN2CCCCC2)CCN(Cc2cnc(-c3ccccn3)nc2)C1 (stereo unspecified),,"inconclusive: 31.6 µM [inhibitor, partial curve, poor fit]"
COc1cccc(-c2cc(C(=O)Nc3cc(OC)c(OC)c(OC)c3)on2)c1,,"inconclusive: 2.82 µM [inhibitor, partial curve, poor fit]"
COc1cccc2c1cc1c(=O)n(CC(=O)N3CCN(c4cc(Cl)ccc4C)CC3)nc(C)n12,,"inconclusive: 20 µM [inhibitor, partial curve, poor fit]"
CC(=O)N[C@H]1CCN(C(=O)C[C@@H]2[C@H](O)CC[C@@H]3[C@]4(C)CO[C@@H](CNC(=O)c5cc(C)on5)O[C@@H]4CC[C@]32C)C1,,"inconclusive: 12.6 µM [inhibitor, partial curve, poor fit]"
Cc1ncc(C(=O)N2CCC3(CC(=O)NC3=O)C2)c(-c2ccccc2)n1 (stereo unspecified),inactive: -1.97%,
OC1(CNc2cc(C(F)(F)F)nc(N3CCCC3)n2)CCCNCC1 (stereo unspecified),,active: 25.1 µM
Cc1ccc2c(-c3ccc(NC4CC4)nn3)cccc2n1,,"inconclusive: 28.2 µM [inhibitor, single point]"
O=C(NC1CC1)c1nc(-c2cccnc2)c2ccccn12,,active: 89.1 µM
Cc1cc(C)n2ncc(C(=O)NCc3cc4n(n3)CCN(C(=O)N(C)C)C4)c2n1,,active: 31.6 µM
CC(C)c1ccc(CNc2nc(-c3ccco3)nn2S(=O)(=O)c2ccc3ccccc3c2)cc1,,"inconclusive: 31.6 µM [inhibitor, single point]"
CCCS(=O)(=O)c1ncc(Cl)c(C(=O)Nc2scc(-c3ccccc3)c2C(=O)OCC)n1,,"inconclusive: 15.8 µM [inhibitor, single point]"
O=C(NCc1ccc(Cl)cc1)c1c[nH]c2cccnc12,,"inconclusive: 100 µM [inhibitor, partial curve, poor fit]"

SMILES,"activity change, negative = inhibition",Potency
CN1CC(=O)N(C2CCNCC2)Cc2c(NCCO)ncnc21,,"inconclusive: 63.1 µM [inhibitor, partial curve, poor fit]"
CCOc1ccc(/C=C(/C#N)c2nc3ccccc3[nH]2)cc1OC,,"inconclusive: 31.6 µM [inhibitor, single point]"
N#Cc1ccc(N2CCC(C(=O)Nc3ncc(Cc4ccccc4)s3)CC2)nc1,inactive: -23.7%,
CC(C)C(=O)Nc1nc2ccc(CCC(=O)NCc3ccccc3F)cc2s1,inactive: 26.3%,
Cc1cc(C2CCC2)nc(N2C[C@@H](C)[C@@](C)(O)C2)n1,,active: 28.2 µM
COc1ccc(-c2cc(-c3ccncc3)c3cncn3c2)cc1OC,inactive: -29.9% [at 86.2 µM],
Cc1ccc(CN(C(=O)COc2cccc([N+](=O)[O-])c2)c2ccccn2)cc1,,"inconclusive: 2 µM [inhibitor, full curve, poor fit]"
CN1c2cc(C(=O)Nc3ccc(Br)cc3)ccc2C(=O)N2CCCCC21 (stereo unspecified),,"inconclusive: 14.1 µM [inhibitor, partial curve, poor fit]"
COc1ccc(C(=O)CCC(=O)OCC(=O)c2ccc3c(c2)OCCO3)cc1,inactive: -2.17%,
CC(=O)Nc1ccc(CN2CCC3(CC(C)=NO3)C2)cc1 (stereo unspecified),inactive: -22.8% [at 86.2 µM],
COc1ccc(CN2C=C(C(=O)OCc3noc(-c4ccc(OC)cc4)n3)C(C)=NS2(=O)=O)cc1,inactive: -9.23%,
CCN(Cc1ccccc1)c1ncncc1-c1nc(-c2ccccc2)no1,,"inconclusive: 25.1 µM [inhibitor, single point]"
Cc1ccc(CS(=O)(=O)N2CCC(C(=O)N3CCN(c4cc(Cl)ccc4C)CC3)CC2)cc1,inactive: 12.3%,
CN1Cc2ncnc(NCCc3ccccc3)c2CN(C2CCC2)C1=O,,"inconclusive: 28.2 µM [inhibitor, partial curve, poor fit]"
O=C([C@@H]1CCCN1C(=O)Cn1ccc2ccccc2c1=O)N1CCOCC1,,"inconclusive: 25.1 µM [inhibitor, single point]"
COc1cc(Cl)ccc1C(=O)NC1CCN(c2cc(-c3ccccc3)[nH]n2)CC1,,"inconclusive: 22.4 µM [inhibitor, single point]"
COc1ccccc1C(=O)NC1CCN(c2cc(-c3cccs3)[nH]n2)C1 (stereo unspecified),,active: 15.8 µM
CCc1nc(NCCO)c(C#N)c2c1CSC(C)(C)C2,,"inconclusive: 22.4 µM [inhibitor, single point]"
Cc1cc(C)cc(OCC(=O)Nc2ccc(-c3nc4ccccc4s3)cc2)c1,,"inconclusive: 17.8 µM [inhibitor, partial curve, poor fit]"
CCOc1ccc(-c2cc(OC(=O)c3ccccc3)c3c(C)oc(C)c3c(=O)c2)cc1,,"inconclusive: 22.4 µM [inhibitor, single point]"
O=C1CCN(C(=O)c2ccsc2)CCCC(C(=O)N2CCN(c3ccccn3)CC2)CCN1 (stereo unspecified),,active: 20 µM
COc1ccc(NC(=O)CSCc2ccc(Cl)cc2)c(OC)c1,,"inconclusive: 39.8 µM [inhibitor, single point]"

SMILES,"activity change, negative = inhibition",Potency
COCCN1CCCCC(CC(=O)Nc2cccc(OC)c2)C1=O (stereo unspecified),inactive: -19.7%,
O=C(COc1ccc2ccc(=O)oc2c1)NCc1cccs1,,"inconclusive: 28.2 µM [inhibitor, partial curve, poor fit]"
COCCN(C)C[C@@H]1CN(C(=O)c2ccc(C(C)=O)s2)C[C@@H]1CO,,"inconclusive: 35.5 µM [inhibitor, partial curve, poor fit]"
CC(C)NC(=O)c1ccc(-n2c(-c3ccccc3)cc3c2CCCCC3)cc1,inactive: -33.9%,
COc1cccc(/C=C/C(=O)NNC(=O)CCN2CCN(Cc3ccccc3)CC2)c1,,"inconclusive: 28.2 µM [inhibitor, partial curve, poor fit]"
CCCc1ccc(C(=O)N(CC#N)C2CC2)cc1,inactive: 26.6%,
COc1ccc2cc(C3CN(Cc4cc5n(n4)CCNC5)CCO3)ccc2c1 (stereo unspecified),,"inconclusive: 17.8 µM [inhibitor, single point]"
COc1ccc(N2CCN(C3CCCN(CC(=O)N(C)C(C)C)C3)CC2)cc1 (stereo unspecified),inactive: -16.9%,
Cn1ccc2cc(S(=O)(=O)N3CCC(C(=O)NCCc4ccccc4)CC3)ccc21,,"inconclusive: 25.1 µM [inhibitor, single point]"
COc1cc(C)ccc1OCCSc1nc2ccc(NC(=O)c3ccc(F)cc3)cc2s1,,"inconclusive: 1.26 µM [inhibitor, full curve, poor fit]"
COc1cc2ccccc2cc1C(=O)Nc1ccccc1SCC(N)=O,,"inconclusive: 39.8 µM [inhibitor, single point]"
CCCC(=O)N1CCc2nc(OCC)ccc2C1,inactive: -29%,
Cc1ccc(CNC(=O)c2ccc3c(c2)nc(C)n3-c2cc(C)cc(C)c2)cc1,,"inconclusive: 14.1 µM [inhibitor, partial curve, poor fit]"
COCCC(=O)N1CCC(Oc2ccc(C(=O)N(C)Cc3cc(C)no3)cc2)CC1,inactive: 25.5%,
O=C(COc1ccccc1F)Nc1ccc(-c2nc3ccccc3s2)cc1,,"inconclusive: 31.6 µM [inhibitor, partial curve, poor fit]"
CC(C)(C)c1ccc(-c2nnc(SCC(=O)N3CCCC3)n2C2CCCC2)cc1,inactive: 17.5%,
Cc1ccc2c(c1)NC(=O)C2(O)C(F)(F)F (stereo unspecified),inactive: 30.4%,
Cc1ccc(C)c(N2C(=O)N(Cc3cc(=O)n4ccccc4n3)c3ccccc3S2(=O)=O)c1,,"inconclusive: 35.5 µM [inhibitor, partial curve, poor fit]"
Cc1cc(=O)oc2cc(OCC(=O)NCC3(N(C)C)CCCCCC3)ccc12,,"inconclusive: 15.8 µM [inhibitor, partial curve, poor fit]"
O=C(NCCCO)c1cc2c([nH]c3ccccc32)c(-c2ccc(F)cc2)n1,,"inconclusive: 22.4 µM [inhibitor, partial curve, poor fit]"
CCOC(=O)c1[nH]c2ccccc2c1NC(=O)CN(CC)CC,,"inconclusive: 39.8 µM [inhibitor, single point]"
CCc1nc(-c2c3n(c(=O)n(CC(=O)Nc4cccc(C#N)c4)c2=O)CCCCC3)no1,inactive: 11.1%,
